Source: PubChem BioAssay AID624417 (National Center for Advancing Translational Sciences (NCATS), 2012)
Among all 410,000 compounds or so, about 6,400 (1.6%) were called active. This list was built around the results that the source calls inconclusive (neither active nor inactive); the mix of calls is not that of the screen. Calls follow the shape of the dose curve; as a rule, active = well fitted inhibition curve with a large enough effect; inconclusive = small, poorly fitted or top-dose-only effect; inactive = no such curve, though single readings can be large or run the other way. Potencies beside an inconclusive call are fits to weak or partial responses and may not hold up.

Biological target: Glucagon-like peptide 1 receptor (Homo sapiens) (UniProt P43220)
Chain of UniProt P43220 (P43220 whole entry, looked up): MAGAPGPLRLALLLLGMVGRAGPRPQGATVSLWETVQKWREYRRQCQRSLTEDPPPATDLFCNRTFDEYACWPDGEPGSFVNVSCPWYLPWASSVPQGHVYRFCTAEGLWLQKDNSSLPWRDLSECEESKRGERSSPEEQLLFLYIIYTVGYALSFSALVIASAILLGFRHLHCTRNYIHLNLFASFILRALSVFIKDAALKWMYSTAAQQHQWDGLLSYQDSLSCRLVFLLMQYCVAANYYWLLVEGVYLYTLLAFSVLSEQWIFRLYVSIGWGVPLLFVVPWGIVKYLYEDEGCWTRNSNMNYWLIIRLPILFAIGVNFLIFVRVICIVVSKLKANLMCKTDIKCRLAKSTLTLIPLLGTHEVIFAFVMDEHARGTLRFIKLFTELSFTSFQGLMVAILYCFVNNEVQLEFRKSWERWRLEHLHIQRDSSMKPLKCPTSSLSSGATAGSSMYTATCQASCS
Test: qHTS of GLP-1 Receptor Inverse Agonists (Inhibition Mode); also: nearly all actives have a fitted effect of over 55% in size
Details: HEK293 GLP-1R CRE-luciferase, luminescence, 24 h, GLP-1R form is constitutively active; series mostly up to 38.3 µM
How it was run: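 Stable HEK293 clone (constitutively active GLP-1R + cAMP-response luciferase); 200 cells/uL plated, 12 h pre-culture, compound 24 hr, 37 deg C/5% CO2; detection reagent 12 min RT; luminescence.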
Potency is read from the fitted curve at half-maximal effect; tags tell the direction and shape of the fitted curve.

Potency, inactive:
O=C(NC(=S)NNC(=O)c1ccccc1O)c1ccc(F)cc1
c1ccc(OCc2nn3c(-c4n[nH]c5c4CCC5)nnc3s2)cc1
O=C(CSc1ccc(-c2cccc([N+](=O)[O-])c2)nn1)NC1CCCC1
Cc1cccc(Cn2c(=O)n(-c3ccc(Cl)c(Cl)c3)c(=O)c3c(C)c(C)sc32)c1
CCc1ccc(N2CCn3c2nc2c3c(=O)n(CCc3ccccc3)c(=O)n2C)cc1
Cc1ccccc1NC(=O)CC1SC(=O)N(c2ccccc2)C1=O (centres undefined)
Cc1cc(C)c(/C=C/c2onc(C)c2S(=O)(=O)N2CCC(C(=O)Nc3ccc(Cl)c(C(F)(F)F)c3)CC2)c(C)c1
COCC(C)NC(=O)c1ccc(CN2CCc3ccccc3C2)cc1 (centres undefined)
COc1ccc(-n2c(=O)c3c(c4cc(OC)ccc4n3C)n(C)c2=O)cc1
CC(OC(=O)CCc1nc2ccccc2c(=O)[nH]1)C(=O)c1ccc(C(C)(C)C)cc1 (centres undefined)
COc1ccc(S(=O)(=O)N2CCOCC2)cc1NC(=O)CCCSc1ccccc1

Potency, inconclusive:
CCN(Cc1ccccc1)C(=O)Cn1c(=O)oc2cc(S(=O)(=O)N3CCCCCC3)ccc21 28.2 µM [inhibitor, single point]
Cc1ccc(C)c(NC(=O)CN(C)C(=O)c2ccc(COc3ccccc3)cc2)c1 17.8 µM [inhibitor, single point]
Cc1ccc(NC(=O)CNCC2CCCCC2)cc1S(=O)(=O)N(C)C 12.6 µM [inhibitor, single point]
Cc1cccnc1C(NC(=O)C1CCN(CCOc2ccc(F)cc2)CC1)c1ccc(Cl)cc1 (centres undefined) 11.2 µM [inhibitor, partial curve, poor fit]
Nc1cc(C(=O)O)c(N)c2c1C(=O)c1ccccc1C2=O 8.91 µM [inhibitor, partial curve]
Cc1ccc2[nH]c(C)c(CCNC(=O)NC3CCCCC3)c2c1 28.2 µM [inhibitor, single point]
O=C(NCC1CCCCC1)c1cccc(Br)c1 31.6 µM [inhibitor, partial curve, poor fit]
Cn1cnc([N+](=O)[O-])c1S(=O)(=O)Oc1cccc2ccccc12 8.91 µM [inhibitor, partial curve, poor fit]
Cc1ccc(NC(=O)Nc2ccc(F)cc2)cc1Cl 3.98 µM [inhibitor, full curve]
CC(=O)Nc1cccc(/C(C)=N/Nc2nc3ccccc3s2)c1 3.55 µM [inhibitor, full curve, poor fit]
CCOP(=O)(OCC)C(Nc1ccccc1)c1ccccc1C(F)(F)F (centres undefined) 10 µM [inhibitor, partial curve, poor fit]
CCN1C(=O)[C@H]2[C@@H](c3ccc(C)cc3)N3C(=O)N(c4cccc(F)c4)C(=O)[C@@]3(Cc3ccc(Cl)cc3)[C@H]2C1=O 10 µM [inhibitor, partial curve, poor fit]
CCN(CC)CCOc1ccc2c(c1)C(=NNC(=O)c1ccccn1)c1cc(OCCN(CC)CC)ccc1-2 10 µM [inhibitor, partial curve, poor fit]
Cc1ccc(N(CC(=O)N2CCN(c3cc(Cl)ccc3C)CC2)S(=O)(=O)c2c(C)noc2C)cc1 28.2 µM [inhibitor, single point]
COc1cc(SC)ccc1C(=O)NC1CCCc2ccccc21 (centres undefined) 12.6 µM [inhibitor, single point]
O=C(CCc1nc2ccccc2c(=O)[nH]1)N1CCCc2ccccc21 15.8 µM [inhibitor, single point]
CCCCn1nnnc1C(c1cc2ccccc2o1)N(CCN(C)C)Cc1ccccc1 (centres undefined) 22.4 µM [inhibitor, single point]
O=C(NCc1nnc(SCc2ccccc2)n1-c1ccc(F)cc1)C12CC3CC(CC(C3)C1)C2 10 µM [inhibitor, partial curve]
COc1ccccc1/C(C)=N/NC(=O)c1nnn(-c2nonc2N)c1C(C)C 28.2 µM [inhibitor, single point]
CCCCC(=O)Nc1ccccc1C(=O)OCC(=O)c1ccc2c(c1)OCCO2 28.2 µM [inhibitor, single point]
Cc1ccc2nc(NC(=O)CSc3nccn3Cc3ccccc3)sc2c1 28.2 µM [inhibitor, single point]
Cc1ccc(C(=O)N2N=C(c3ccc(NS(C)(=O)=O)cc3)CC2c2cccs2)cc1 (centres undefined) 28.2 µM [inhibitor, single point]
O=C(Nc1ccccc1Cl)C1C(c2ccccc2)C1(Cl)Cl (centres undefined) 28.2 µM [inhibitor, single point]
COc1ccc(C(C)=O)cc1COc1ccc(Cl)c(C)c1 31.6 µM [inhibitor, single point]
Cc1ncc(S(=O)(=O)c2ccccc2)c(-c2ccc(Cl)cc2Cl)n1 3.55 µM [inhibitor, partial curve, poor fit]
CCn1c(SC)nnc1-c1sc2cc(Cl)ccc2c1Cl 10 µM [inhibitor, partial curve, poor fit]
CCN(Cc1ccc(Cl)s1)C(=O)c1cccc(OCc2c(C)noc2C)c1 22.4 µM [inhibitor, single point]
COc1cccc(OC)c1OCc1cc(C2C3CCCC=C3C(C#N)=C(N)C2(C#N)C#N)c(C)cc1C (centres undefined) 28.2 µM [inhibitor, single point]
O=C(COc1ccccc1F)Nc1ccc(Cl)c(-c2nc3ccccc3[nH]2)c1 10 µM [inhibitor, partial curve, poor fit]
Cc1ccc(-n2c(=O)c3cccnc3n2CC(=O)NCc2ccc(F)cc2)cc1C 11.2 µM [inhibitor, single point]
CC(C)(C)OC(=O)N(CCc1ccccc1)Cc1ccccc1OCc1cccc(NC(=O)C2CC2)c1 2 µM [inhibitor, partial curve, poor fit]
CSc1ccc(CN2CCc3c([nH]c4ccccc34)C2)cc1 3.55 µM [inhibitor, single point]
O=C(c1cc(Br)c(Br)s1)N1CCc2ccccc2C1 14.1 µM [inhibitor, single point]
Clc1ccc(C2CC(c3cccs3)n3ncnc3N2)cc1 (centres undefined) 3.16 µM [inhibitor, partial curve, poor fit]
C[C@@H](NC(=O)c1[nH]cnc1C(=O)Nc1ccc(Cl)cc1)c1ccccc1 12.6 µM [inhibitor, partial curve, poor fit]
COc1ccc(Cl)cc1S(=O)(=O)N1CCCC(C(=O)NCCc2ccccc2)C1 (centres undefined) 10 µM [inhibitor, partial curve, poor fit]
COc1ccc(NC(=S)/N=C(\N)Nc2nc(C)c3ccccc3n2)cc1 8.91 µM [inhibitor, partial curve, poor fit]
COc1ccc(-c2cc(C(F)(F)F)nc(NC3CCCC3)n2)cc1OC 28.2 µM [inhibitor, single point]
N#Cc1c(N)n(C2OC(CO)C(O)C2O)c2ncnc(N)c12 (centres undefined) 0.501 µM [inhibitor, full curve, poor fit]
Cc1ccc2occ(/C=N/NC(=O)c3ccccc3O)c(=O)c2c1 14.1 µM [inhibitor, partial curve, poor fit]
CC1=C(c2ccc(C)c(C)c2)S(=O)(=O)N=C1N1CCC(C(=O)NCc2ccc(Cl)cc2)CC1 20 µM [inhibitor, single point]
CC[C@H]1OC(=O)[C@H](C)[C@@H](O[C@H]2C[C@@](C)(OC)[C@@H](O)[C@H](C)O2)[C@H](C)[C@@H](O[C@@H]2O[C@H](C)C[C@H](N(C)C)[C@H]2O)[C@](C)(O)C[C@@H](C)CN(C)[C@H](C)[C@@H](O)[C@]1(C)O 11.2 µM [inhibitor, partial curve, poor fit]
COc1ccc(CNS(=O)(=O)c2cc(-c3cc(C)no3)ccc2C(C)C)cc1 1.26 µM [inhibitor, full curve, poor fit]
CN1C(=O)N(CC(=O)NCc2ccc(Cl)cc2Cl)C(=O)C12CCCCC2 8.91 µM [inhibitor, partial curve, poor fit]
COc1ccc(NC(=O)COc2ccc(N(C)S(=O)(=O)c3ccc(C)cc3)cc2)cc1 11.2 µM [inhibitor, single point]
CC1=C(C(=O)OC(C)C)C(c2ccc(N(C)C)cc2)C2=C(CC(C)(C)CC2=O)N1 (centres undefined) 28.2 µM [inhibitor, single point]
CN1C(=S)SC(N(O)C(=O)Nc2cccc3ccccc23)C1(C)C (centres undefined) 28.2 µM [inhibitor, single point]
O=C1c2ccccc2C(=O)N1CCCCN(C(=O)c1ccc([N+](=O)[O-])cc1)c1ccc(Cl)cc1 12.6 µM [inhibitor, single point]
